The campaign covered roughly 45,000 compounds. About 200 (0.44%) were called active. Not shown: some 7% with an inconclusive outcome. Calls follow the shape of the dose curve; as a rule, active = well fitted activation curve with a large enough effect; inconclusive = small, poorly fitted or top-dose-only effect; inactive = no such curve, though single readings can be large or run the other way. This is one part of the list.
Test: qHTS of TDP-43 Inhibitors: NCGC Sytravon Library Screen; also: 0% is about no effect; nearly all actives have a fitted effect of over 55% in size
Conditions: yeast TDP-43 toxicity rescue, BacTiter-Glo growth, 24 h; series mostly up to 46.1 µM; growth rescue (activation): at the top concentration
Outline: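 TDP-43-expressing yeast, pregrown in raffinose, seeded at OD600 0.02 in galactose medium with compound for 24 hr at 30 deg C. Growth read by BacTiter-Glo luminescence, so rescue of toxicity appears as activation.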
With CC(=O)c1ccc(N=Nc2ccc(C)cc2)cc1 the “growth rescue (activation)” value was inactive: 19.8%. In the case of COc1ccc2nc(NC(=O)c3cc(S(=O)(=O)N4CCOCC4)ccc3C)sc2c1, the “growth rescue (activation)” value was inactive: 1.4%. In the case of Cc1cc(S(=O)(=O)NCc2ccccc2)ccc1OCC(=O)NCC1CCCO1 (stereo not given), the “growth rescue (activation)” value was inactive: 8.15%. In the case of COC(=O)CSc1nc2ccccn2c(=O)c1C=O, the “growth rescue (activation)” value was inactive: -4.66%. In the case of NS(=O)(=O)c1ccc(CCNC(=O)CCCn2c(=O)[nH]c3ccc(Br)cc3c2=O)cc1, the “growth rescue (activation)” value was inactive: 4.72%. In the case of CS(=O)(=O)N(CCC#N)Cc1ccc(C=O)o1, the “growth rescue (activation)” value was inactive: 12.1%. With COC(=O)CCNC(=O)c1ccc2[nH]c(C)c(C)c2c1 the “growth rescue (activation)” value was inactive: -8.44%. With CN(C)C(CNC(=S)Nc1ccc(F)cc1)c1cccnc1 (stereo not given) the “growth rescue (activation)” value was inactive: -5.64%. In the case of Cc1ccc(-n2nc(C(=O)O)c(O)cc2=O)cc1, the “growth rescue (activation)” value was inactive: -3.86%. In the case of Cc1ccc(NS(=O)(=O)c2ccccc2[N+](=O)[O-])cc1S(=O)(=O)N1CCCCC1, the “growth rescue (activation)” value was inactive: 6.82%. For Cc1[nH]c2ccccc2c1/C=C(/C#N)C(=O)NC(C)C, the “growth rescue (activation)” value was inactive: -10.3%. With O=C(O)c1cc2nc(-c3cccs3)cc(C(F)(F)F)n2n1 the “growth rescue (activation)” value was inactive: -13.3%. For COc1ccc(/C=C(\C#N)C(=O)NCc2cccs2)cc1OC, the “growth rescue (activation)” value was inactive: -24.1%. For CCc1cc[n+](/C(C(=S)Nc2cccc(C)c2)=C(/[O-])c2ccc(C)c([N+](=O)[O-])c2)cc1, the “growth rescue (activation)” value was inactive: 3.45%. With CN1CCc2c(sc3nc(NN)n(Cc4ccccc4)c(=O)c23)C1 the “growth rescue (activation)” value was inactive: 0.162%. With Cc1c(C(=O)Nc2ccccc2)sc2ncn(CC(=O)N3CCCCC3)c(=O)c12 the “growth rescue (activation)” value was inactive: 4.09%. In the case of Cc1nn(CCCC(=O)NCCc2ccccc2)c(C)c1[N+](=O)[O-], the “growth rescue (activation)” value was inactive: 1.64%. In the case of COc1ccc(C(=O)Nc2ccc(N3CCCC3)cc2)cc1OC, the “growth rescue (activation)” value was inactive: 13.7%. For COc1cc(/C=C2\SC(=O)N(CCNC(=O)c3cnc(C)cn3)C2=O)cc(OC)c1OC, the “growth rescue (activation)” value was inactive: 10.4%. In the case of COc1ccc(C(=O)NC(=S)NCc2cccnc2)cc1[N+](=O)[O-], the “growth rescue (activation)” value was inactive: -11.6%. With N=C1C(c2nc3ccccc3s2)=C(O)CN1NC(=O)c1c[nH]c2ccccc12 the “growth rescue (activation)” value was inactive: -3.38%. For Cc1cc(F)ccc1C(O)c1ncc(-c2cccc(F)c2)[nH]1 (stereo not given), the “growth rescue (activation)” value was inactive: 4.08%. With C=CCN(c1ccccc1OC)S(=O)(=O)c1ccc(Cl)c(C(=O)Nc2ccc(N3CCOCC3)cc2)c1 the “growth rescue (activation)” value was inactive: 5.1%. In the case of Cc1ccc(Nc2nc3ccccc3n3nnnc23)cc1, the “growth rescue (activation)” value was inactive: -16%. In the case of CC(=O)C1=C(C)N2CCN=C2S1, the “growth rescue (activation)” value was inactive: -14.6%. For Cc1ccc2nc(-c3ccc(NC(=O)c4cccnc4)cc3)oc2c1, the “growth rescue (activation)” value was inactive: 36.8%. With CN1CCN(c2nc3ccccc3nc2NS(=O)(=O)c2ccc(Br)cc2)CC1 the “growth rescue (activation)” value was inactive: -7.57%. With COC(=O)c1c(NC(=S)NN2CCOCC2)sc2c1CCCC2 the “growth rescue (activation)” value was inactive: 5.36%. In the case of COc1ccc(Cc2nnc(NCCO)[nH]c2=O)cc1OC, the “growth rescue (activation)” value was inactive: -5.98%. With Cc1cccc(NC(=O)C2CCN(C(=O)NCc3ccccc3)CC2)c1C the “growth rescue (activation)” value was inactive: -1.17%.

From PubChem BioAssay AID1347073 (National Center for Advancing Translational Sciences (NCATS), 2019)
